Experimental data published in a collection of fitness landscapes (doi:10.1016/j.celrep.2020.107928).
In all, about 81,000 sequences were measured (“one-hybrid fitness for binding NBS DNA”: median about -0.1, highest 2% from about 0.36 on). The list shows a part of the results.

B1: Caulobacter ParB omega fusion; a variant is named by its letters at X, in order, B8GW30 (parent)
chain: MESVVVGEPGMSEGRRGLGRGLSALLGEVDAAPAQAPGEQLGGSREAPIEILQRNPDQPRRTFREEDLEDLSNSIREKGVLQPILVRPSPDTAGEYQIVAGERAWRAAQRAGLKTVPIMVRELDDLAVLEIGIIENVQRADLNVLEEALSYKVLMEKFERTQENIAQTIGKSXSHVANXMRLLXLPDEVQSYLVSGELTAXHARAIAAAADPVALAKQIIEGGLSVRETEALARKAPNLSAGKSKGGRPPRVKDTDTQALESDLSSVLGLDVSIDHRGSTGTLTITYATLEQLDDLCNRLTRGI

Variants of: B1
Assay: one-hybrid fitness for binding NBS DNA (the Noc-binding site; scaled: cognate 1, non-cognate 0); higher = stronger binding
Settings: with NBS DNA site
Procedure, shortened: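 Pre- and post-selection plasmids were Illumina-sequenced, three replicate libraries were pooled, and any variant with under 10 reads was removed. The libraries were Caulobacter ParB with four specificity codons randomised, selected in E. coli USO through a HIS3 reporter whose site is 19 bp from the promoter. Cells grew 48 hours at 37°C on M9 without histidine, with 0.1 mM IPTG and 5 mM 3-AT. Fitness is the log change in variant-to-wild-type read ratio, rescaled against cognate and non-cognate.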

Variant | one-hybrid fitness for binding NBS DNA
QVTA | ≤ 0.2
QANH | ≤ 0.2
QYSC | ≤ 0.2
HNFT | ≤ 0.2
HDGV | ≤ 0.2
HGYA | ≤ 0.2
HHGR | ≤ 0.2
RNTY | ≤ 0.2
SHAY | ≤ 0.2
INYS | ≤ 0.2
QIGA | ≤ 0.2
CSSW | ≤ 0.2
PKTI | ≤ 0.2
LKFR | ≤ 0.2
NPDL | ≤ 0.2
QDAD | ≤ 0.2
MTAK | ≤ 0.2
REGE | ≤ 0.2
ASEL | ≤ 0.2
DMRS | ≤ 0.2
LYVH | ≤ 0.2
GVAH | ≤ 0.2
EEGS | ≤ 0.2
TDTS | ≤ 0.2

Variant | one-hybrid fitness for binding NBS DNA
SPVG | ≤ 0.2
LRCR | ≤ 0.2
GAHG | ≤ 0.2
VGRN | ≤ 0.2
EAGG | ≤ 0.2
LQES | ≤ 0.2
STKH | ≤ 0.2
CWTS | ≤ 0.2
NMTR | ≤ 0.2
NVQM | ≤ 0.2
ELNM | ≤ 0.2
RPHS | ≤ 0.2
RAKG | ≤ 0.2
QNKV | ≤ 0.2
GSHF | ≤ 0.2
NLML | ≤ 0.2
FSDG | ≤ 0.2
VRSH | ≤ 0.2
TTST | ≤ 0.2
PNLT | ≤ 0.2
SNND | ≤ 0.2
NLRR | ≤ 0.2
NAMP | ≤ 0.2
AQLT | ≤ 0.2

Variant | one-hybrid fitness for binding NBS DNA
QAFF | ≤ 0.2
DLYV | ≤ 0.2
FPES | ≤ 0.2
ISAP | ≤ 0.2
PQDR | ≤ 0.2
LKDG | ≤ 0.2
AQRK | ≤ 0.2
KAVG | ≤ 0.2
MRQA | ≤ 0.2
HIMT | ≤ 0.2
RGQF | ≤ 0.2
SQSP | ≤ 0.2
NVDG | ≤ 0.2
TFRM | ≤ 0.2
QCMC | 0.214
DRPK | ≤ 0.2
FSAM | ≤ 0.2
RHWL | ≤ 0.2
TPLE | ≤ 0.2
NAFI | ≤ 0.2
LQKT | ≤ 0.2
QCKY | 0.59
VSFR | ≤ 0.2
PSGM | ≤ 0.2

Variant | one-hybrid fitness for binding NBS DNA
QAFA | ≤ 0.2
RKNE | ≤ 0.2
GHTQ | ≤ 0.2
ATGW | ≤ 0.2
ILPY | ≤ 0.2
RIEM | ≤ 0.2
GTSI | ≤ 0.2
MEQR | ≤ 0.2
RFLQ | ≤ 0.2
ESCY | ≤ 0.2
LRDS | ≤ 0.2
KLLR | ≤ 0.2
QTPA | ≤ 0.2
HNKS | ≤ 0.2
AMQT | ≤ 0.2
MRSG | ≤ 0.2
QQVV | ≤ 0.2
FGRW | ≤ 0.2
QLRF | 0.211
YVYF | ≤ 0.2
VRLA | ≤ 0.2
HTIF | ≤ 0.2
RQRE | ≤ 0.2
KDTS | ≤ 0.2

Variant | one-hybrid fitness for binding NBS DNA
SLEC | ≤ 0.2
REVA | ≤ 0.2
GPVI | ≤ 0.2
NYAY | ≤ 0.2
AVGD | ≤ 0.2
IHDG | ≤ 0.2
LKEN | ≤ 0.2
ANYM | ≤ 0.2
GHVW | ≤ 0.2
GCWS | ≤ 0.2
HPYD | ≤ 0.2
GLKM | ≤ 0.2
QKMW | ≤ 0.2
QSSS | 0.353
GTVW | ≤ 0.2
HIHG | ≤ 0.2
IFRN | ≤ 0.2
NHRK | ≤ 0.2
YHYG | ≤ 0.2
ACSE | ≤ 0.2
PHSA | ≤ 0.2
EANL | ≤ 0.2
KKRT | 0.381
APTV | ≤ 0.2

Variant | one-hybrid fitness for binding NBS DNA
NMNW | ≤ 0.2
TFRL | ≤ 0.2
NTPS | ≤ 0.2
FLGG | ≤ 0.2
CRRQ | ≤ 0.2
WSHR | ≤ 0.2
TQTL | ≤ 0.2
LNLT | ≤ 0.2
NALM | ≤ 0.2
ILPV | ≤ 0.2
IQPT | ≤ 0.2
TQYF | ≤ 0.2
HTWC | ≤ 0.2
LRMK | ≤ 0.2
LHGW | ≤ 0.2
PHAM | ≤ 0.2
SVLL | ≤ 0.2
HRQG | ≤ 0.2
VTTK | ≤ 0.2
HQEF | ≤ 0.2
SLYN | ≤ 0.2
GRHW | ≤ 0.2
VPMR | ≤ 0.2
TDYE | ≤ 0.2

Variant | one-hybrid fitness for binding NBS DNA
TIPS | ≤ 0.2
PGAC | ≤ 0.2
SANV | ≤ 0.2
LVHS | ≤ 0.2
HLQI | ≤ 0.2
YHAG | ≤ 0.2
KKLA | ≤ 0.2
VRRF | ≤ 0.2
YWHS | ≤ 0.2
LYHI | ≤ 0.2
TMIH | ≤ 0.2
KRQL | ≤ 0.2
AIHP | ≤ 0.2
WRWW | ≤ 0.2
DIDG | ≤ 0.2
DAPP | ≤ 0.2
FCSA | ≤ 0.2
DWPE | ≤ 0.2
EWVM | ≤ 0.2
TQHV | ≤ 0.2
SYHY | ≤ 0.2
FHYF | ≤ 0.2
NDMP | ≤ 0.2
SAMT | ≤ 0.2

Variant | one-hybrid fitness for binding NBS DNA
YSPT | ≤ 0.2
GSML | ≤ 0.2
PNDF | ≤ 0.2
VVAW | ≤ 0.2
QYYI | ≤ 0.2
TLHV | ≤ 0.2
ATTG | ≤ 0.2
IAQV | ≤ 0.2
IAVL | ≤ 0.2
IRHN | ≤ 0.2
YAAC | ≤ 0.2
IESR | ≤ 0.2
QHLC | ≤ 0.2
PDYT | ≤ 0.2
PNFI | ≤ 0.2
SKSC | ≤ 0.2
EEGT | ≤ 0.2
EMNR | ≤ 0.2
GIYG | ≤ 0.2
NERS | ≤ 0.2
RFMW | ≤ 0.2
RCYL | ≤ 0.2
SVQP | ≤ 0.2
TRLI | ≤ 0.2

Variant | one-hybrid fitness for binding NBS DNA
CADC | ≤ 0.2
LCPN | ≤ 0.2
SSDC | ≤ 0.2
RKVR | 0.478
GMNC | ≤ 0.2
LGPI | ≤ 0.2
WCSG | ≤ 0.2
TAHT | ≤ 0.2
KNKF | ≤ 0.2
FRRA | ≤ 0.2
NDWR | ≤ 0.2
CPRD | ≤ 0.2
KPSQ | ≤ 0.2
TQVG | ≤ 0.2
VCKL | ≤ 0.2
TWTW | ≤ 0.2
IDSA | ≤ 0.2
RCRN | 0.23
HFAA | ≤ 0.2
TQSH | ≤ 0.2
AAPG | ≤ 0.2
TACG | ≤ 0.2
PRFW | ≤ 0.2
YKYR | ≤ 0.2

Variant | one-hybrid fitness for binding NBS DNA
LRQR | ≤ 0.2
CSRV | ≤ 0.2
TQYS | ≤ 0.2
MITW | ≤ 0.2
RFLL | ≤ 0.2
LNAP | ≤ 0.2
RSWE | ≤ 0.2
RPMT | ≤ 0.2
PRAN | ≤ 0.2
NRLF | ≤ 0.2
PPWD | ≤ 0.2
STLA | ≤ 0.2
LDRL | ≤ 0.2
QLKN | 0.365
RLHY | ≤ 0.2
RMSN | ≤ 0.2
SMHE | ≤ 0.2
RMCC | ≤ 0.2
GSTS | ≤ 0.2
MLYE | ≤ 0.2
LCFG | ≤ 0.2
MYAV | ≤ 0.2
PGSL | ≤ 0.2
EVFG | ≤ 0.2

Variant | one-hybrid fitness for binding NBS DNA
KYHF | ≤ 0.2
PKMT | ≤ 0.2
VCRS | ≤ 0.2
CMNL | ≤ 0.2
CHQC | ≤ 0.2
TTNV | ≤ 0.2
HVVS | ≤ 0.2
RYGV | ≤ 0.2
IAGL | ≤ 0.2
RNMC | ≤ 0.2
TVCC | ≤ 0.2
FMGG | ≤ 0.2
LKYT | ≤ 0.2
KAKI | ≤ 0.2
ATWF | ≤ 0.2
PKFP | ≤ 0.2
YYPR | ≤ 0.2
WTGS | ≤ 0.2
LMEG | ≤ 0.2
MGRH | ≤ 0.2
TRPY | ≤ 0.2
HHIR | ≤ 0.2
DRNY | ≤ 0.2
WFGC | ≤ 0.2

Variant | one-hybrid fitness for binding NBS DNA
HISY | ≤ 0.2
PWQK | ≤ 0.2
LTKL | ≤ 0.2
EAYN | ≤ 0.2
QRYD | 0.222
YVYS | ≤ 0.2
MTGA | ≤ 0.2
SQAF | ≤ 0.2
DQKV | ≤ 0.2
PDHF | ≤ 0.2
ETMS | ≤ 0.2
AFGG | ≤ 0.2
KSTE | ≤ 0.2
SGQR | ≤ 0.2
KPVS | ≤ 0.2
WFHR | ≤ 0.2
SCHA | ≤ 0.2
QSYS | 0.337
ATTM | ≤ 0.2
QCPL | ≤ 0.2
AWSC | ≤ 0.2
QKTS | 0.475
CIES | ≤ 0.2
HNIL | ≤ 0.2

Variant | one-hybrid fitness for binding NBS DNA
FQVS | ≤ 0.2
WCPC | ≤ 0.2
RCTR | 0.534
NCNR | ≤ 0.2
LIAY | ≤ 0.2
MPSF | ≤ 0.2
GYIM | ≤ 0.2
PTPV | ≤ 0.2
EDVG | ≤ 0.2
KVFG | ≤ 0.2
LVEF | ≤ 0.2
CTHR | ≤ 0.2
KKLV | ≤ 0.2
RILS | 0.205
KCSE | ≤ 0.2
KYLC | ≤ 0.2
ASTG | ≤ 0.2
VHLR | ≤ 0.2
